Test results: the supplement of paper PMC4166925
± gives the standard deviation of the averaged measurements. The full ranking holds about 33,000 sequences; the median of “E-score (dimensionless, -0.5 to 0.5)” is about -0.046, and the highest 2% start at about 0.36. The list shows a part of the results.

What follows are sequences tested on T1, SpTbr T-box DNA-binding domain (GST fusion) (assay: PBM E-score of 8-mer (E-score (dimensionless, -0.5 to 0.5)); Tbr is Tbrain of the sea star Patiria miniata (Pm) or the sea urchin Strongylocentrotus purpuratus (Sp); higher = stronger binding preference; most listed sequences are background and not binding sites). Conditions: the construct has about 5 more residues each side.
T1 sequence: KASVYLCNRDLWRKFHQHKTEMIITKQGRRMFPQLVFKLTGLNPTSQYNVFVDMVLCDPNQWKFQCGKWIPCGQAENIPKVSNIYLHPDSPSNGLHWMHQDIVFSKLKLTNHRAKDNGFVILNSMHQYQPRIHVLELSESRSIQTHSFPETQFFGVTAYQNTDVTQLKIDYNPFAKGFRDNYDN
Method in brief: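 Each ungapped 8-mer received an enrichment E-score from the Universal PBM Analysis Suite, averaged over duplicate arrays. The proteins were Tbr T-box DNA-binding domains, covering the whole T-box plus about five flanking residues, fused to GST and expressed in BL21 E. coli at 20 °C before glutathione affinity purification. Universal Agilent oligonucleotide arrays were made double-stranded by primer extension and incubated with 200 nM protein in PBS (pH 7.5). The arrays were then scanned and quantified, and every 8-mer was scored from probe intensities.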
With CTCTACGA the “PBM E-score of 8-mer” value was -0.24 ± 0.1.
TACATAGA was tested, and the “PBM E-score of 8-mer” value was -0.257 ± 0.092.
AGCCTCCG was tested, and the “PBM E-score of 8-mer” value was -0.3206 ± 0.0028.
GAAACACA was tested, and the “PBM E-score of 8-mer” value was 0.147 ± 0.028.
In the case of GACCCATC, the “PBM E-score of 8-mer” value is reported as -0.125 ± 0.057.
In the case of CGCGGAAA, the “PBM E-score of 8-mer” value is reported as 0.0452 ± 0.051.
For CAGCGACA, the “PBM E-score of 8-mer” value was 0.267 ± 0.016.
For CTGCTGCA, the “PBM E-score of 8-mer” value was -0.0183 ± 0.02.
In the case of CGCAGAAC, the “PBM E-score of 8-mer” value is reported as -0.15 ± 0.0027.
With CATTTCGG the “PBM E-score of 8-mer” value was -0.0614 ± 0.07.
ACGGATAA was tested, and the “PBM E-score of 8-mer” value was -0.107 ± 0.1.
In the case of CCACTTCC, the “PBM E-score of 8-mer” value is reported as 0.072 ± 0.0026.
In the case of AGTTTGAC, the “PBM E-score of 8-mer” value is reported as 0.143 ± 0.018.
ATCAAGAC was tested, and the “PBM E-score of 8-mer” value was -0.0819 ± 0.046.
For AGTCCTGG, the “PBM E-score of 8-mer” value was -0.262 ± 0.021.
In the case of AACTTTGA, the “PBM E-score of 8-mer” value is reported as -0.142 ± 0.012.
ACCCGTCG was tested, and the “PBM E-score of 8-mer” value was 0.189 ± 0.015.
For AGGAAAGA, the “PBM E-score of 8-mer” value was -0.138 ± 0.044.
In the case of CGCATCTC, the “PBM E-score of 8-mer” value is reported as 0.0815 ± 0.0093.
For AGCACTCG, the “PBM E-score of 8-mer” value was 0.0623 ± 0.0054.
In the case of CAAAGATG, the “PBM E-score of 8-mer” value is reported as 0.0333 ± 0.031.
For TCCTCGCA, the “PBM E-score of 8-mer” value was 0.32 ± 0.0082.
For CCATCCTC, the “PBM E-score of 8-mer” value was -0.0525 ± 0.015.
AGGTTAAA was tested, and the “PBM E-score of 8-mer” value was -0.259 ± 0.084.
CGAGGGCG was tested, and the “PBM E-score of 8-mer” value was 0.175 ± 0.068.
For ACACAGAC, the “PBM E-score of 8-mer” value was 0.0656 ± 0.061.
For ATATATGG, the “PBM E-score of 8-mer” value was -0.285 ± 0.026.
With ACCATATC the “PBM E-score of 8-mer” value was -0.0486 ± 0.037.
In the case of CAGCTTGA, the “PBM E-score of 8-mer” value is reported as -0.108 ± 0.051.
AGTCTAAG was tested, and the “PBM E-score of 8-mer” value was -0.3169 ± 0.0024.
With AGTACATA the “PBM E-score of 8-mer” value was -0.159 ± 0.097.
GCAGTTCC was tested, and the “PBM E-score of 8-mer” value was -0.108 ± 0.012.
ATTCTCAA was tested, and the “PBM E-score of 8-mer” value was 0.138 ± 0.062.
CCTCGTCA was tested, and the “PBM E-score of 8-mer” value was 0.243 ± 0.041.
For ACTCAGTG, the “PBM E-score of 8-mer” value was -0.0601 ± 0.013.
With CTAGTTGA the “PBM E-score of 8-mer” value was 0.0724 ± 0.0029.
With CCCTGTAA the “PBM E-score of 8-mer” value was 0.137 ± 0.0029.
With AAAAAGCT the “PBM E-score of 8-mer” value was -0.194 ± 0.11.
In the case of CTCACTAC, the “PBM E-score of 8-mer” value is reported as 0.116 ± 0.05.
In the case of AATTAGAG, the “PBM E-score of 8-mer” value is reported as -0.242 ± 0.034.
GGCCGACC was tested, and the “PBM E-score of 8-mer” value was -0.314 ± 0.012.
For TATGCAAA, the “PBM E-score of 8-mer” value was -0.0882 ± 0.035.
With AAATGCTA the “PBM E-score of 8-mer” value was -0.106 ± 0.042.
For AACGGGCA, the “PBM E-score of 8-mer” value was 0.00372 ± 0.033.
For AGAATATA, the “PBM E-score of 8-mer” value was -0.143 ± 0.0095.
AATGCATC was tested, and the “PBM E-score of 8-mer” value was 0.00662 ± 0.039.
For ACGATTCA, the “PBM E-score of 8-mer” value was 0.12 ± 0.031.
For AGGGTAAT, the “PBM E-score of 8-mer” value was -0.142 ± 0.019.
In the case of CGCTCCCC, the “PBM E-score of 8-mer” value is reported as -0.0404 ± 0.07.
For TCCTCAAA, the “PBM E-score of 8-mer” value was -0.227 ± 0.043.
With TGCATTAA the “PBM E-score of 8-mer” value was 0.022 ± 0.05.
TCTTACCA was tested, and the “PBM E-score of 8-mer” value was -0.00983 ± 0.026.
For CAAGTAGA, the “PBM E-score of 8-mer” value was -0.0961 ± 0.025.
In the case of AGGGACGA, the “PBM E-score of 8-mer” value is reported as 0.053 ± 0.072.
For CCGGCAAC, the “PBM E-score of 8-mer” value was 0.1597 ± 0.00047.
In the case of CTAGGAAA, the “PBM E-score of 8-mer” value is reported as -0.206 ± 0.045.
In the case of ATGACTGG, the “PBM E-score of 8-mer” value is reported as -0.13 ± 0.0031.
With CCGTCCCG the “PBM E-score of 8-mer” value was -0.0649 ± 0.04.
With GAGCTATC the “PBM E-score of 8-mer” value was -0.177 ± 0.04.
With CCTTATGC the “PBM E-score of 8-mer” value was -0.158 ± 0.016.
With GCGGCGGA the “PBM E-score of 8-mer” value was 0.0142 ± 0.09.
With GAGATGGC the “PBM E-score of 8-mer” value was -0.0157 ± 0.0073.
GTCCAGAA was tested, and the “PBM E-score of 8-mer” value was -0.3462 ± 0.0029.
In the case of CGTCACCC, the “PBM E-score of 8-mer” value is reported as 0.329 ± 0.048.
For CATAGCGA, the “PBM E-score of 8-mer” value was -0.0855 ± 0.0029.
For GTCCCTGA, the “PBM E-score of 8-mer” value was -0.163 ± 0.057.
In the case of AGGTGGGG, the “PBM E-score of 8-mer” value is reported as 0.238 ± 0.056.
With CACAGTTC the “PBM E-score of 8-mer” value was 0.143 ± 0.061.
With CACTTTCG the “PBM E-score of 8-mer” value was 0.255 ± 0.012.
For AAAATGGC, the “PBM E-score of 8-mer” value was -0.252 ± 0.044.
GAACGAAC was tested, and the “PBM E-score of 8-mer” value was 0.0292 ± 0.063.
In the case of AAAGTCCA, the “PBM E-score of 8-mer” value is reported as -0.342 ± 0.019.
For AGCCTGGA, the “PBM E-score of 8-mer” value was -0.223 ± 0.026.
In the case of AATCCCTA, the “PBM E-score of 8-mer” value is reported as -0.0686 ± 0.09.
In the case of AGGGCTAG, the “PBM E-score of 8-mer” value is reported as -0.124 ± 0.033.
For ACTATCCT, the “PBM E-score of 8-mer” value was -0.0859 ± 0.077.
With CTCAACTA the “PBM E-score of 8-mer” value was 0.0969 ± 0.0033.
In the case of AGGGTCAG, the “PBM E-score of 8-mer” value is reported as -0.136 ± 0.036.
AGACAGAC was tested, and the “PBM E-score of 8-mer” value was -0.0381 ± 0.013.
In the case of GTAGACTA, the “PBM E-score of 8-mer” value is reported as -0.14 ± 0.053.
For ATATAGAA, the “PBM E-score of 8-mer” value was -0.289 ± 0.088.
In the case of AGTCGAGG, the “PBM E-score of 8-mer” value is reported as 0.0144 ± 0.029.
In the case of TAATAGAA, the “PBM E-score of 8-mer” value is reported as -0.0195 ± 0.012.
ACTTACCA was tested, and the “PBM E-score of 8-mer” value was 0.137 ± 0.041.
In the case of CCTTGGGA, the “PBM E-score of 8-mer” value is reported as -0.206 ± 0.074.
For ACCCCGAC, the “PBM E-score of 8-mer” value was -0.0242 ± 0.1.
